{
  "source": "paper PMC4336329",
  "about": "(PLoS ONE, 2015)",
  "note": "Among all 310,000 compounds or so, about 2,200 (0.71%) showed an effect of 50% or more. The effect is printed as a negative number. This is one part of the list.",
  "data": [
    {"biological_target": "human ether-à-go-go-related gene (hERG) potassium channel (human, UniProt Q12809)", "sequence (Q12809 whole entry, looked up)": "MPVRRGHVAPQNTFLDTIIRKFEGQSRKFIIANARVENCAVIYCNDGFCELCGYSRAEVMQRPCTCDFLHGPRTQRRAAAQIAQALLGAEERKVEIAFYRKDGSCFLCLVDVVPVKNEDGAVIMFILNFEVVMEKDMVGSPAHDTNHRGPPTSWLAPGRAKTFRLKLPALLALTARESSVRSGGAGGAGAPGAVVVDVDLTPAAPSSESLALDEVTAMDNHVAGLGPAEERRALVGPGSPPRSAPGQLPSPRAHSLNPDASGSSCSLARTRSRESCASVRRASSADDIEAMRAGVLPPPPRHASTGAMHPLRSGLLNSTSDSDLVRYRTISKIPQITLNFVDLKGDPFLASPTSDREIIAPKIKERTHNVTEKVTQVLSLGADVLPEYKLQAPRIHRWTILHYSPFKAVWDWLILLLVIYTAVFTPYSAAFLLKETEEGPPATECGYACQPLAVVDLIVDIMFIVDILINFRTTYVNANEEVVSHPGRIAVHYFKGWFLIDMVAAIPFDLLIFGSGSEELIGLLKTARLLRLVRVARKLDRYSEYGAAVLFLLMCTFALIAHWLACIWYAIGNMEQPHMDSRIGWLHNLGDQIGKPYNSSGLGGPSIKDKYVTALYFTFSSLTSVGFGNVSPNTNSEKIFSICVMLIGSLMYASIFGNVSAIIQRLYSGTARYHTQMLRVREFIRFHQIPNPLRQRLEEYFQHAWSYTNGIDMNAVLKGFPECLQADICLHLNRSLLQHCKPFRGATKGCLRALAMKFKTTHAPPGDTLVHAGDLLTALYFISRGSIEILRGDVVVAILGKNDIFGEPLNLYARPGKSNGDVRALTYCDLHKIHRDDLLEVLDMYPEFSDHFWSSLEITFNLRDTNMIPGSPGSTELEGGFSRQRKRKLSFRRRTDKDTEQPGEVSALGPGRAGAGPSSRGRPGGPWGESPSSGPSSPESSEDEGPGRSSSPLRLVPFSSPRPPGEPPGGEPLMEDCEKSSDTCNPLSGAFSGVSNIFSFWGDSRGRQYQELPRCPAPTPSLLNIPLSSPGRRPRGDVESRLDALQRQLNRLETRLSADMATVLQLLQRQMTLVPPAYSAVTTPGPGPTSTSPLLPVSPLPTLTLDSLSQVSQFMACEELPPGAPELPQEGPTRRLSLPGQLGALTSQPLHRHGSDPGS", "assay": "primary screen, population patch clamp on CHO cells stably expressing hERG", "units": {"hERG current change (%, negative = inhibition) at 1uM": "%"}, "values": [
      {"smiles": "CCn1c(COc2cccc(C)c2C)nnc1SCC(=O)N1CCN(c2ccc(OC)cc2)CC1", "hERG current change (%, negative = inhibition) at 1uM": -0.263},
      {"smiles": "C=CCn1c(SCC(=O)Nc2ccc(F)cc2)nnc1-c1cnccn1", "hERG current change (%, negative = inhibition) at 1uM": 16},
      {"smiles": "C=CCN1C(=O)CN=C1Nc1cccc(C)c1.Cl", "hERG current change (%, negative = inhibition) at 1uM": 12.3},
      {"smiles": "CCC(c1nnc(SCC(=O)NCC2CCCO2)n1Cc1ccccc1)N(C)C", "note": "(stereo not drawn)", "hERG current change (%, negative = inhibition) at 1uM": -2.76},
      {"smiles": "CCOC(=O)C1=C(O)/C(=C\\c2ccc(CNS(=O)(=O)c3ccc(Br)cc3)o2)N=C1C", "hERG current change (%, negative = inhibition) at 1uM": 12.3},
      {"smiles": "O=C(NCCc1ccccc1)C(=O)Nc1ccc([N+](=O)[O-])cc1", "hERG current change (%, negative = inhibition) at 1uM": 11},
      {"smiles": "O=C(CCCc1ccccc1)NCc1ccccc1", "hERG current change (%, negative = inhibition) at 1uM": 20.2},
      {"smiles": "CCn1cc(CN2CCc3c([nH]c4ccccc34)C2c2ccc(F)c(OC)c2)c(C)n1", "note": "(stereo not drawn)", "hERG current change (%, negative = inhibition) at 1uM": 7.17},
      {"smiles": "COc1ccccc1CNS(=O)(=O)c1ccc(-n2cccn2)cc1", "hERG current change (%, negative = inhibition) at 1uM": 13.3},
      {"smiles": "CCOC(=O)C1CCCN(C(=O)c2sc3nc(C)nc(N(CC)CC)c3c2C)C1", "note": "(stereo not drawn)", "hERG current change (%, negative = inhibition) at 1uM": -11.3},
      {"smiles": "S=c1nc(-c2ccccc2)[nH]n1-c1ccccc1", "hERG current change (%, negative = inhibition) at 1uM": 7.93},
      {"smiles": "C(=N\\Nc1ncnc2sc3c(c12)CCC3)/c1ccncc1", "hERG current change (%, negative = inhibition) at 1uM": -0.416},
      {"smiles": "CC(NC(=O)C1CCCN(S(=O)(=O)c2cccs2)C1)c1ccccc1", "note": "(stereo not drawn)", "hERG current change (%, negative = inhibition) at 1uM": 11.6},
      {"smiles": "CN1C(=O)NC(c2ccccc2)C2=C1CN(c1ccc3ccccc3c1)C2=O", "note": "(stereo not drawn)", "hERG current change (%, negative = inhibition) at 1uM": 9.13},
      {"smiles": "COc1ccc(CC(=O)Nc2ccc(OC)c(NC(=O)c3ccco3)c2)cc1", "hERG current change (%, negative = inhibition) at 1uM": 9.1},
      {"smiles": "Cc1nn(-c2ccccc2)c(C)c1NS(=O)(=O)c1ccccc1", "hERG current change (%, negative = inhibition) at 1uM": 3.04},
      {"smiles": "O=C(C[n+]1cc(Br)cc2ccccc21)c1ccccc1.[Br-]", "hERG current change (%, negative = inhibition) at 1uM": 9.44},
      {"smiles": "CN(C)c1ccc(C(O)P(=O)(OC2CCCCC2)OC2CCCCC2)cc1", "note": "(stereo not drawn)", "hERG current change (%, negative = inhibition) at 1uM": 13.3},
      {"smiles": "CCOC(=O)c1c(C)c(C(=O)NCC2CCCO2)c(C)n1C", "note": "(stereo not drawn)", "hERG current change (%, negative = inhibition) at 1uM": 13.7},
      {"smiles": "Cc1cc(NC(=O)CCC(=O)N(Cc2ccco2)C(C(=O)NC2CCCC2)c2ccccc2)no1", "note": "(stereo not drawn)", "hERG current change (%, negative = inhibition) at 1uM": 1.95},
      {"smiles": "O=C(/C=C/c1ccc([N+](=O)[O-])cc1)NNC(=O)C1CC1", "hERG current change (%, negative = inhibition) at 1uM": 1.2},
      {"smiles": "CCOC(=O)c1ccc(NCCc2ccc(OC)c(OC)c2)c(N)c1", "hERG current change (%, negative = inhibition) at 1uM": 7.71},
      {"smiles": "O=C(O)c1ccc2c(c1)CCCN2", "hERG current change (%, negative = inhibition) at 1uM": 13},
      {"smiles": "COC(=O)C1C(=O)C(C(=O)/C=C/c2ccccc2)C(=O)CC1(C)C", "note": "(stereo not drawn)", "hERG current change (%, negative = inhibition) at 1uM": 15.1},
      {"smiles": "Cc1ccc(NC(=O)CNC(=O)c2ccco2)cc1", "hERG current change (%, negative = inhibition) at 1uM": 14.7},
      {"smiles": "O=C(NCC1CCCCC1)c1ccc(F)c(S(=O)(=O)N2CCOCC2)c1", "hERG current change (%, negative = inhibition) at 1uM": 2.63},
      {"smiles": "CCN(CC)c1nc(C)c(C(=S)Nc2cc([N+](=O)[O-])ccc2Cl)s1", "hERG current change (%, negative = inhibition) at 1uM": 5.14},
      {"smiles": "COc1ccc(CN(CC(=O)NCc2ccc(F)cc2)C(=O)c2ccco2)cc1", "hERG current change (%, negative = inhibition) at 1uM": -12},
      {"smiles": "O=C(O)C(=O)O.O=C(c1ccco1)N1CCN(CC2CC3C=CC2C3)CC1", "note": "(stereo not drawn)", "hERG current change (%, negative = inhibition) at 1uM": -5.37},
      {"smiles": "CCC(C)(CCNC(=O)Cc1ccccc1)c1ccccc1OC", "note": "(stereo not drawn)", "hERG current change (%, negative = inhibition) at 1uM": -9.88},
      {"smiles": "CC(=O)Nc1ccc(S(=O)(=O)NCCC(=O)NCCc2ccc(F)cc2)cc1", "hERG current change (%, negative = inhibition) at 1uM": 9.6},
      {"smiles": "COc1cc(C(=O)Nc2nc(N)n(-c3ccccc3)n2)cc(OC)c1OC", "hERG current change (%, negative = inhibition) at 1uM": 3.39},
      {"smiles": "CCOC(=O)C1=C(C)N(c2ccccc2)C(=O)/C1=C\\c1ccc(O)c(OC)c1", "hERG current change (%, negative = inhibition) at 1uM": 2.6},
      {"smiles": "CCCn1c(O)c(CN2CCCC(C)C2)c(C)c(C#N)c1=O", "note": "(stereo not drawn)", "hERG current change (%, negative = inhibition) at 1uM": 8.81},
      {"smiles": "COCCN(C(=O)COC(=O)CCS(=O)(=O)c1ccccc1)c1c(N)n(Cc2ccccc2)c(=O)[nH]c1=O", "hERG current change (%, negative = inhibition) at 1uM": -2.21},
      {"smiles": "O=C(O)CN1CCN(Cc2ccc(Cl)cc2)C1=O", "hERG current change (%, negative = inhibition) at 1uM": -7.06},
      {"smiles": "COC(=O)[C@H](C)[C@H]1C[C@]1(C)[C@H](NC(=O)OCc1ccccc1)c1ccccc1", "hERG current change (%, negative = inhibition) at 1uM": 8.14},
      {"smiles": "O=[N+]([O-])c1cccc(/C=N/N2CCN(Cc3ccccc3)CC2)c1", "hERG current change (%, negative = inhibition) at 1uM": 14.4},
      {"smiles": "COCc1cc(C)nc2sc(C(=O)N3CCCCC3)c(N)c12", "hERG current change (%, negative = inhibition) at 1uM": 1.53},
      {"smiles": "O=S(=O)(NCc1ccco1)c1ccc2c(c1)Cc1ccccc1-2", "hERG current change (%, negative = inhibition) at 1uM": -1.55},
      {"smiles": "Cc1ccc(NC(=O)c2ccc(C)c(S(=O)(=O)N3CCOCC3)c2)nc1", "hERG current change (%, negative = inhibition) at 1uM": 12.9},
      {"smiles": "COc1cccc(-c2noc(C3CCCN(C(=O)c4ccc(F)cc4)C3)n2)c1", "note": "(stereo not drawn)", "hERG current change (%, negative = inhibition) at 1uM": 11.4},
      {"smiles": "COc1ccccc1/C=N/n1cnnc1", "hERG current change (%, negative = inhibition) at 1uM": 11.1},
      {"smiles": "CCCN1C(=O)COc2ccc(-c3n[nH]c(=O)c4ccccc34)cc21", "hERG current change (%, negative = inhibition) at 1uM": 17.8},
      {"smiles": "Cc1nn(Cc2ccccc2)c(Cl)c1C(=O)Nc1ccc(OC(F)(F)F)cc1", "hERG current change (%, negative = inhibition) at 1uM": 14.6},
      {"smiles": "CC(=O)Nc1ccc(C2CN(C)CC2C(=O)c2ccc(Cl)cc2)cc1", "note": "(stereo not drawn)", "hERG current change (%, negative = inhibition) at 1uM": -6.1},
      {"smiles": "CCOC(=O)c1sc2nc(C)cc(-c3ccccc3)c2c1N", "hERG current change (%, negative = inhibition) at 1uM": -0.469},
      {"smiles": "Nc1nnc(SCC(=O)Nc2cc(S(=O)(=O)N3CCOCC3)ccc2Cl)s1", "hERG current change (%, negative = inhibition) at 1uM": -1.36},
      {"smiles": "COC(=O)[C@@H]1C[C@H]1[C@@H](NS(=O)(=O)c1ccccc1)c1ccccc1", "hERG current change (%, negative = inhibition) at 1uM": 3.44},
      {"smiles": "CN(CC(=O)Nc1cccc(F)c1)C(=O)c1cccnc1Sc1ccccc1Cl", "hERG current change (%, negative = inhibition) at 1uM": 1.49},
      {"smiles": "Cn1ccnc1-c1nnn(-c2ccc(F)cc2)n1", "hERG current change (%, negative = inhibition) at 1uM": 12.1},
      {"smiles": "CCCCn1c(=O)c(C(=O)NCc2ccccc2Cl)c(O)c2ccccc21", "hERG current change (%, negative = inhibition) at 1uM": 14.4},
      {"smiles": "COCC(C)n1c(SCC(=O)N2CCc3ccccc3C2)nc2ccccc2c1=O", "note": "(stereo not drawn)", "hERG current change (%, negative = inhibition) at 1uM": -0.208},
      {"smiles": "CNc1ccccc1C(=O)OCC(=O)c1ccccc1", "hERG current change (%, negative = inhibition) at 1uM": 18.2},
      {"smiles": "Cc1cccc(N2C(=O)CN=C2Nc2nc(C)cc(C)n2)c1", "hERG current change (%, negative = inhibition) at 1uM": -2.73},
      {"smiles": "COc1ccc(-n2c(CNC(=O)c3cc(OC)c(OC)c(OC)c3)n[nH]c2=S)cc1", "hERG current change (%, negative = inhibition) at 1uM": 5.95},
      {"smiles": "COc1ccc(C(=O)N[C@H](C(=O)N2CCN(c3ccccc3F)CC2)C(C)C)cc1", "hERG current change (%, negative = inhibition) at 1uM": -2.54}
    ]}
  ]
}
